Experimental data as given in PubChem BioAssay AID463173 (ICCB-Longwood Screening Facility, Harvard Medical School, 2010).
Among all 52,000 compounds or so, about 4,300 (8.3%) were called active. Cut-off read from the data, not from the text of the source: active = survival mostly below about 52% (no sharp cut-off); inactive = mostly above about 56%. The list shows a part of the results.

Test system: DeltatarO mutant
Test: growth inhibition of S. aureus wild type versus tarO mutant, primary screen, teichoic acid synthesis inhibitors, RN4220, OD600 (AID 463173)
Conditions: OD600, 18 h, hits give low values, screened at 18.75 µg/mL (by protocol)

SMILES	survival
COc1ccc2cc(CNc3ccc(C)cc3)c(=O)n(CC(=O)Nc3cccc(C(F)(F)F)c3)c2c1	inactive: 81%
CCOC(=O)CSc1nc2c(sc3cccc(F)c32)c(=O)n1Cc1ccc(OC)cc1	inactive: 87%
COc1ccccc1-n1c(=O)c2c3c(sc2n(Cc2ccccc2F)c1=O)CN(C(C)=O)CC3	inactive: 120%
CC(C)(C)C(=O)Nc1ccc2nc(SCC(=O)N3CCc4ccccc43)sc2c1	inactive: 109%
Cc1ccc(S(=O)(=O)c2cn(CC(=O)Nc3ccc4c(c3)OCO4)c3ccccc3c2=O)cc1C	inactive: 112%
CS(=O)(=O)Cc1nc2ccccc2oc1=O	inactive: 64%
O=C(NCCS(=O)(=O)N1CCN(c2ccc(F)cc2)CC1)C1CC(=O)N(c2ccccc2)C1 (stereo not given)	inactive: 89%
CCOc1ccc(NC(=O)c2cc3cc4cc(OC)ccc4nc3s2)cc1	inactive: 82%
Cc1cccc(NS(=O)(=O)c2ccc3c(c2)OCC(C(=O)N2CCCC2)O3)c1C (stereo not given)	inactive: 67%
CCc1nn(CCCC(=O)NCc2cc(Br)ccc2OC)c(=O)c2cc3occc3n12	active: 46%
COc1cccc(C(=O)Nc2cccc(C(=O)OCc3cc(=O)n4c5c(sc4n3)CCCC5)c2)c1	inactive: 98%
COc1ccc(Cn2nnnc2CN2CCc3ccccc32)cc1	inactive: 73%
CCCN1CCN(CCNC(=O)Nc2ccccc2OCC)CC1	inactive: 60%
COc1cc2nc(C3CCC3)n(NC(=O)c3ccccc3C)c(=O)c2cc1OC	inactive: 104%
CCCN(Cc1cccs1)C(=O)Nc1ccc(Br)cc1F	inactive: 57%
Cc1cc2c(n1-c1ccc(C(=O)NCCc3ccccc3)cc1)CCC(C)C2 (stereo not given)	inactive: 77%
COc1ccc2[nH]c(=O)c(CN(C(=O)c3cccc(Cl)c3)c3cccc(C)c3)cc2c1	inactive: 60%
CCN1CCN(c2ncc3c(n2)CCN(Cc2ccc(OC)c(OC)c2)C3)CC1	inactive: 79%
Cc1cc2c(n1-c1ccc(C(=O)NCc3ccc(OC(C)C)cc3)cc1)CCCC2	inactive: 74%
COc1cc(-c2oc3ccc(C)cc3c(=O)c2O)cc(OC)c1OC	inactive: 89%
COc1ccc2c(c1)c1c(c(=O)n(-c3cccc(C)c3)c(=O)n1CC(=O)NCC1CCCO1)n2C (stereo not given)	inactive: 76%
COc1ccccc1NC(=O)CSc1oc(-c2ccccc2)nc1S(=O)(=O)c1ccccc1	inactive: 145%
CCC(Sc1nc(N)cc(=O)[nH]1)C(=O)Nc1cccc2ccccc12 (stereo not given)	inactive: 97%
COc1ccccc1CNC(=O)CCCn1c(=O)c2ccccc2n(Cc2ccccc2C#N)c1=O	inactive: 139%
Cc1cccc(Cc2c(C)nc3nc(SCc4ccccc4F)nn3c2C)c1	inactive: 84%
COc1cccc(CNC(=O)CCCCCn2c(=O)[nH]c3cc(OC)c(OC)cc3c2=O)c1	inactive: 154%
CCN1C(=O)c2ccccc2S(=O)c2ccc(C(=O)N3CCN(c4ccccc4OC)CC3)cc21 (stereo not given)	inactive: 71%
CN1CCN(C(=O)NC2CCCCC2)CC1	inactive: 91%

SMILES	survival
CN(Cc1ccccc1)C(=O)c1cc(-c2cccc(Cl)c2)on1	active: -15%
COc1cc(C(CC(=O)Nc2cc(C)ccn2)N2Cc3ccccc3C2=O)cc(OC)c1OC (stereo not given)	inactive: 76%
CCOC(=O)c1c(C)[nH]c(C)c1S(=O)(=O)NCC(=O)NCc1ccccc1Cl	inactive: 96%
CCc1ccc(-n2nc(CO)c(C(=O)NCc3cccnc3)n2)cc1	inactive: 51%
O=C(c1ccc2c(c1)N(Cc1ccc(Cl)cc1)C(=O)c1ccccc1S2(=O)=O)N1CCN(Cc2ccccc2)CC1	inactive: 78%
O=S(=O)(c1ccc(Br)cc1)c1nnn2c1nc(NCCc1ccccc1)c1sccc12	inactive: 37%
Cc1ccc(CCNC(=O)CCn2nc(-c3ccc(Cl)cc3)ccc2=O)cc1	inactive: 67%
COc1ccc(N2C(=O)CCSC23C(=O)N(Cc2ccc(F)cc2)c2ccccc23)cc1 (stereo not given)	inactive: 75%
Cc1ccc(-c2onc(C)c2C)cc1S(=O)(=O)Nc1cccc(Cl)c1C	inactive: 61%
COc1ccc(CCCc2n[nH]c(=S)n2C)cc1C	inactive: 74%
Cc1nc2ccc(S(=O)(=O)NC(C(=O)N3CCN(c4cccc(Cl)c4)CC3)C(C)C)cc2s1 (stereo not given)	inactive: 80%
O=C(NC1CCCCC1)NC1CCN(CC(=O)c2ccc(Cl)cc2)CC1	inactive: 71%
CCc1ccc(C(=O)NC2=NC(c3cc(OC)ccc3OC)CC(=O)N2)cc1 (stereo not given)	inactive: 101%
Cc1ccc(-c2nn(C)c(=O)c3ccccc23)cc1S(=O)(=O)NCCCN(C)C	inactive: 61%
O=C(Nc1ccc(-c2nc3cc(NC(=O)c4ccc(Cl)cc4)ccc3o2)cc1)c1ccc(Cl)cc1	inactive: 88%
COc1ccc(-c2cc(C(F)(F)F)n3nc(C(=O)Nc4sc5c(c4C(=O)OC(C)C)CCC(C)C5)cc3n2)cc1 (stereo not given)	inactive: 78%
CCCN(CCC)C(=O)C1CCCN(S(=O)(=O)c2cc(Br)cc3c2N(C(=O)CC)CC3)C1 (stereo not given)	inactive: 91%
COc1ccc(CNC(=O)C(OC(=O)c2ccco2)c2ccc(C)cc2)cc1 (stereo not given)	inactive: 74%
COc1ccc(C2=C(C)C(N3CCN(c4ccc(OC)cc4)CC3)=NS2(=O)=O)cc1	inactive: 91%
CCOCCCn1c(=N)c(C(=O)NC(C)c2ccccc2)cc2c(=O)n3cccc(C)c3nc21 (stereo not given)	inactive: 122%
COc1ccc(C(=O)NNc2ncnc3c2cnn3-c2ccc(C)cc2C)cc1	active: 0%
CN(C(=O)c1ccc2c(c1)N(Cc1ccc(F)cc1)C(=O)c1ccccc1S2(=O)=O)C1CCCCC1	inactive: 71%
CCC(CC)C(=O)Nc1nnc(S(=O)(=O)N2c3ccccc3CC2C)s1 (stereo not given)	inactive: 61%
Fc1cccc(-c2nnn3c2nc(NCc2ccc4c(c2)OCO4)c2ccccc23)c1	inactive: 85%
Cc1cc(N2CCC(C(=O)Nc3ccccc3Cl)CC2)n2nc(C)c(-c3ccc(Cl)cc3)c2n1	inactive: 81%
Cc1ccc2occ(CC(=O)Nc3ccc(Cl)c(C(F)(F)F)c3)c2c1	inactive: 48%
Cc1nc(N2CCCC2)ncc1C(=O)NCc1ccc(F)cc1	inactive: 89%
